Assay results from PubChem BioAssay (NCI).
Several values for one entry are separate records, joined by “and”; a condition that tells them apart may be missing. Identical values can stand only once.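 Briefly, cells in 96-well plates were exposed to five compound concentrations for 48 h, and endpoints were estimated by linear interpolation. GI50 marks 50% less growth. TGI marks complete inhibition of growth.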

Test system: NCI-H322M lung
Experiment: growth of human tumour cells (NCI), 48 h

Row | SMILES | TGI | GI50
1 | CC(=O)OC[C@@H](OC(C)=O)[C@@H](OC(C)=O)[C@H]1OC[C@@H]2C[C@H]([C@H]1OC(C)=O)N(Cc1ccccc1)O2 | > 100 µM | –
2 | CCN(CC)c1cccc2c1C1(O)CCC3(CC21)OCCCCO3 (centres undefined) | > 100 µM | –
3 | O=C(N/C(=C\c1ccc(Oc2ccc(Cl)c(Cl)c2)cc1)c1nc2ccccc2[nH]1)c1ccccc1 | 47.1 µM | –
4 | O=C(CCCCCCC(=O)Nc1ccc2c(c1)/C(=C/c1ccc[nH]1)C(=O)N2)NO | 11.5 µM | 0.976 µM
5 | CN1CCn2c(c(Sc3ccc(C(=O)NO)cc3)c3ccccc32)C1=O | 7.97 µM | 2.68 µM
6 | O=C1c2ccccc2-c2c1c(-c1ccccc1)c1n2C2(C(=O)c3ccccc3C2=O)C2C(=O)N(c3ccccc3)C(=O)C12 (centres undefined) | 51.7 µM | –
7 | COc1ccc2nc(C)cc(Nc3ccccc3O)c2c1 | 86 µM | 28.8 µM
8 | Cn1c(=O)c(C(=O)NC(=O)OCc2ccccc2)cn(CCSCCOC(=O)NCCCCCCNC(=O)OCCSCCn2cc(C(=O)NC(=O)OCc3ccccc3)c(=O)n(C)c2=O)c1=O | > 100 µM | –
9 | C=C1CC[C@@H]2[C@](C)(COC(C)=O)[C@H](OC(C)=O)CC[C@@]2(C)[C@@H]1C/C=C1/C(=O)OC[C@H]1OC(C)=O | 29.7 µM | 16 µM
10 | CC1=C(C(=O)Nc2ccc(F)c(Cl)c2)C(c2cccc(Oc3ccccc3)c2)NC(=O)N1 (centres undefined) | 28.4 µM | 14 µM
11 | C/C=C/C=C\C1OC(O)([C@H](CC)C(=O)NC/C=C/C=C(\C)[C@H](OC)C(C)C2OC(\C=C/C=C/C=C(\C)C(=O)c3c(O)ccn(C)c3=O)[C@H](O)[C@@H]2O)C(O)C(O)C1(C)C (some centres undefined) | > 100 µM | –
12 | Oc1c(N=Nc2ccccc2)c2ccccc2c2ccc3ccccc3c12 | > 100 µM | –
13 | Cc1cc(N)ccc1C=O | > 100 µM | –
14 | CN(C)CCCNc1ccc2nnn3c4ccc(OC(=O)c5ccc([N+](=O)[O-])cc5)cc4c(=O)c1c23 | 20.4 µM | –
15 | O=C(CN1CCOCC1)Nc1ccc2c(c1)C1Oc3ccccc3CC1CO2 (centres undefined) | > 100 µM | –
16 | CCOC(=O)C(=CNC(=S)Nc1c(CC)cccc1CC)C(=O)OCC | > 100 µM | –
17 | CCSC(=O)/C=C1\CN(C(=O)OC(C)(C)C)C1C(=O)OC(C)(C)C (centres undefined) | 23.1 µM | –
18 | CC1/C(=N/Nc2ccc([N+](=O)[O-])cc2)CC2C3(C)CCC2(C(C)C(=O)O)C(=O)C13 (centres undefined) | > 100 µM | 55.8 µM

Row | SMILES | TGI | GI50
19 | CS(=O)(=O)Nc1cc(-c2ccc3ncnc(Nc4ccc5c(cnn5Cc5ccccc5F)c4)c3c2)cnc1Cl | 20 µM | 2.78 µM
20 | NS(=O)(=O)c1nnc(/N=C(/CCC(=O)O)C(=O)O)s1 | > 100 µM | –
21 | COC(=O)CCC(C)C1CCC2C3CCC4CC5CCC4(C)C3(O5)C(Br)C(Br)C12C (centres undefined) | > 100 µM | –
22 | NC(CCSC(F)F)C(=O)O (centres undefined) | > 100 µM | –
23 | Cc1c(F)c(N)c2c(=O)cc(-c3ccc(NC(=O)[C@@H](N)CCCCN)c(F)c3)oc2c1F | 27 µM and 21.6 µM | –
24 | COc1ccc(/C(C)=N/NC(=O)c2ccncc2)cc1OC | > 10 µM | –
25 | COc1cc(C2c3cc4c(cc3OC(NCc3ccccc3)C2C)OCO4)cc(OC)c1OC (centres undefined) | > 100 µM | –
26 | COC(=O)CC1(O)C(/C=C/c2ccccc2)C(C(=O)OC)C(=O)C(C(=O)OC)C1C(=O)OC (centres undefined) | > 100 µM | –
27 | Cc1cccc2c1C/C(=C1\CCc3c(C)cccc31)C2=O | > 100 µM | –
28 | O=C(N/N=C\c1ccc(N(CCCl)CCCl)cc1Cl)c1cccnc1 | > 100 µM | 26.1 µM
29 | Nc1ncnc2c(C3OC(CO)C(O)C3O)nsc12 (centres undefined) | > 100 µM | –
30 | COc1ccc2c(c1)CCCN1Cc3ccccc3CC21 (centres undefined) | > 100 µM | –
31 | COc1cc(-c2oc3c(OC)c(O)c(OC)c(O)c3c(=O)c2OC)ccc1O | > 100 µM | –
32 | CCCCCCCSCC1C(=O)C23C(O)C1CCC2C12COC3(O)C(O)C1C(C)(C)CCC2O (centres undefined) | 33.4 µM | –
33 | CC(C)(c1ccc(OC#N)cc1)c1ccc(OC#N)cc1 | > 100 µM | –
34 | CN(C)CCNC(=O)c1cc(-c2nccn2C)nc2ccccc12 | > 100 µM | –
35 | CC[C@](C)(O)C(=O)O[C@H]1C(=O)O[C@@H]2C[C@H]3C(C)=C[C@H](O)[C@@H](O)[C@]3(C)[C@H]3[C@@]4(O)OC[C@]32[C@@H]1[C@@H](C)[C@H]4O | 320 µM | –
36 | CC(C)(C)c1cc(C(=O)/C=C/c2ccc3c(c2)CCO3)cc(C(C)(C)C)c1O | > 100 µM | –
